Our source for the cAMP reporter score and surface expression score values is the GPR68 mutational scans of Howard et al. (2025).

Scores whose standard error is large were omitted. The source holds two more conditions with little spread; they are left out. Read del as a deletion of the residues named and ins as an insertion between two positions. For part of these data: The data file names ogerin without a concentration.

B1: GPR68, Q15743 (parent)
chain: MGNITADNSSMSCTIDHTIHQTLAPVVYVTVLVVGFPANCLSLYFGYLQIKARNELGVYLCNLTVADLFYICSLPFWLQYVLQHDNWSHGDLSCQVCGILLYENIYISVGFLCCISVDRYLAVAHPFRFHQFRTLKAAVGVSVVIWAKELLTSIYFLMHEEVIEDENQHRVCFEHYPIQAWQRAINYYRFLVGFLFPICLLLASYQGILRAVRRSHGTQKSRKDQIQRLVLSTVVIFLACFLPYHVLLLVRSVWEASCDFAKGVFNAYHFSLLLTSFNCVADPVLYCFVSETTHRDLARLRGACLAFLTCSRTGRAREAYPLGAPEASGKSGAQGEEPELLTKLHPAFQTPNSPGSGGFPTGRLA

Variants of B1 are the subject of data set [1]. Kind of data set: cAMP reporter score (Enrich2 score, wild type = 0); higher = more signal; HEK293T, FACS bins.
Data set [2] covers variants of B1. Kind of data set: surface expression score (Enrich2 score, wild type = 0); higher = more signal; HEK293T, FACS bins.

As for T22_L23insG, the cAMP reporter score in data set [1] (pH 5.5) was -1.9; in data set [1] (pH 6), -0.746; in data set [1] (pH 6, modulator: ogerin), -1.22; in data set [1] (pH 6.5, modulator: ogerin), -0.672. The surface expression score in data set [2] was -1.52.
For C13_T14insGS, in that order: -0.37, -0.487, -0.365, -0.279 and -1.19.
With Q21_T22insGS, the cAMP reporter score in data set [1] (pH 5.5) is -0.251; in data set [1] (pH 6) it was -2.07; in data set [1] (pH 6, modulator: ogerin), -1.59; in data set [1] (pH 6.5, modulator: ogerin), -0.627. Besides, in data set [2], the surface expression score was -2.37.
For M11_S12del, the cAMP reporter score is -0.482 in data set [1] (pH 5.5) and -1.42 in data set [1] (pH 6, modulator: ogerin). Besides, the surface expression score in data set [2] was -0.411.
For the variant A24del, the cAMP reporter score in data set [1] (pH 5.5) is -0.962; in data set [1] (pH 6), -0.446; in data set [1] (pH 6, modulator: ogerin) it was -0.368; in data set [1] (pH 6.5, modulator: ogerin) it was -0.861. For the same variant, in data set [2], the surface expression score was -2.27.
Take T18H: the cAMP reporter score was 0.528 in data set [1] (pH 5.5); -0.475 in data set [1] (pH 6); 0.413 in data set [1] (pH 6, modulator: ogerin); -0.325 in data set [1] (pH 6.5, modulator: ogerin). Moreover, in data set [2], the surface expression score is -0.27.
For T18V, the cAMP reporter score in data set [1] (pH 5.5) is 0.849; in data set [1] (pH 6), 1.18; in data set [1] (pH 6, modulator: ogerin), 1.11; in data set [1] (pH 6.5, modulator: ogerin), 1.65. For the same variant, the surface expression score in data set [2] came to 0.481.
Consider T18W, for which the cAMP reporter score was 0.782 in data set [1] (pH 5.5); 2.22 in data set [1] (pH 6); 1.6 in data set [1] (pH 6, modulator: ogerin); 2.67 in data set [1] (pH 6.5, modulator: ogerin). The surface expression score in data set [2] stood at 1.67.
Take T18C: the cAMP reporter score in data set [1] (pH 5.5) is -0.644; in data set [1] (pH 6), -0.994; in data set [1] (pH 6, modulator: ogerin) it was -0.957; in data set [1] (pH 6.5, modulator: ogerin), -1.31. The surface expression score in data set [2] is -1.61.
For T18G, the cAMP reporter score in data set [1] (pH 5.5) is -0.207; in data set [1] (pH 6, modulator: ogerin), 0.303. For the same variant, the surface expression score in data set [2] was -0.536.
As for T18Q, the cAMP reporter score in data set [1] (pH 5.5) is -0.037; in data set [1] (pH 6), 0.356; in data set [1] (pH 6, modulator: ogerin), 0.874; in data set [1] (pH 6.5, modulator: ogerin), -0.012. The surface expression score in data set [2] was -0.648.
For T18R, the cAMP reporter score in data set [1] (pH 5.5) stood at 0.107; in data set [1] (pH 6), 0.654; in data set [1] (pH 6, modulator: ogerin), 0.371; in data set [1] (pH 6.5, modulator: ogerin), 0.546. In addition, the surface expression score in data set [2] turned out to be 0.578.
In the case of T18M, the cAMP reporter score in data set [1] (pH 5.5) turned out to be 0.038; in data set [1] (pH 6), 0.278; in data set [1] (pH 6, modulator: ogerin), 0.449; in data set [1] (pH 6.5, modulator: ogerin) it was 0.904. Besides, the surface expression score in data set [2] was -0.216.
Consider T18I, for which the cAMP reporter score in data set [1] (pH 5.5) worked out at 0.337; in data set [1] (pH 6), 0.549; in data set [1] (pH 6, modulator: ogerin) it was 0.245; in data set [1] (pH 6.5, modulator: ogerin) it was 0.594. In data set [2], the surface expression score was -0.215.
Turning to T18Y, the cAMP reporter score in data set [1] (pH 5.5) is -0.017; in data set [1] (pH 6), 0.975; in data set [1] (pH 6, modulator: ogerin) it was -0.186; in data set [1] (pH 6.5, modulator: ogerin), 0.433. The surface expression score in data set [2] came to 0.269.
For the variant T18K, the cAMP reporter score is -1.11 in data set [1] (pH 5.5); 0.09 in data set [1] (pH 6); -0.347 in data set [1] (pH 6, modulator: ogerin); 0.643 in data set [1] (pH 6.5, modulator: ogerin). Also, the surface expression score in data set [2] is -0.545.
With T18E, the cAMP reporter score in data set [1] (pH 5.5) was -0.404; in data set [1] (pH 6, modulator: ogerin), -0.557; in data set [1] (pH 6.5, modulator: ogerin), -1.44. Also, the surface expression score in data set [2] is -2.5.
On to T18A, for which the cAMP reporter score in data set [1] (pH 5.5) turned out to be 0.789; in data set [1] (pH 6), 0.794; in data set [1] (pH 6, modulator: ogerin), 0.714; in data set [1] (pH 6.5, modulator: ogerin) it was 1.16. Besides, in data set [2], the surface expression score was 0.685.
For T18F, in that order: 0.93, 0.314, 0.955, 0.472 and 1.92.
The corresponding values for T18N are 0.485, -0.345, 0.13, 0.225 and -0.337.
For T18S, the cAMP reporter score was -0.313 in data set [1] (pH 5.5); -0.814 in data set [1] (pH 6); -0.346 in data set [1] (pH 6, modulator: ogerin); 0.37 in data set [1] (pH 6.5, modulator: ogerin). The surface expression score in data set [2] was -0.113.
For T18L, in that order: 1.06, 0.351, 0.843, 1.45 and 0.276.
Consider T18P, for which the cAMP reporter score in data set [1] (pH 5.5) is -0.288; in data set [1] (pH 6) it was -0.722; in data set [1] (pH 6, modulator: ogerin), -0.182; in data set [1] (pH 6.5, modulator: ogerin) it was -0.667. Further, in data set [2], the surface expression score is -1.05.
Take M11K: the cAMP reporter score is -0.352 in data set [1] (pH 5.5); 0.206 in data set [1] (pH 6); -0.603 in data set [1] (pH 6, modulator: ogerin); 0.638 in data set [1] (pH 6.5, modulator: ogerin). Also, in data set [2], the surface expression score was -0.83.
For M11N, the cAMP reporter score was 0.201 in data set [1] (pH 5.5); -0.37 in data set [1] (pH 6); 0.959 in data set [1] (pH 6, modulator: ogerin); 1.22 in data set [1] (pH 6.5, modulator: ogerin). In addition, in data set [2], the surface expression score stood at 0.721.
As for M11E, the cAMP reporter score in data set [1] (pH 5.5) is 0.028; in data set [1] (pH 6) it was 0.702; in data set [1] (pH 6, modulator: ogerin), 0.594; in data set [1] (pH 6.5, modulator: ogerin) it was 0.273. Further, the surface expression score in data set [2] came out at 0.413.
M11P: the cAMP reporter score is -0.344 in data set [1] (pH 5.5); -0.611 in data set [1] (pH 6); -0.855 in data set [1] (pH 6, modulator: ogerin); -0.862 in data set [1] (pH 6.5, modulator: ogerin). In addition, in data set [2], the surface expression score is -0.729.
On to M11Y, for which the cAMP reporter score in data set [1] (pH 5.5) worked out at 0.323; in data set [1] (pH 6) it was 0.878; in data set [1] (pH 6, modulator: ogerin) it was 0.924; in data set [1] (pH 6.5, modulator: ogerin), 1.13. The surface expression score in data set [2] came out at 0.439.
For M11H, the cAMP reporter score was -0.541 in data set [1] (pH 5.5); -0.245 in data set [1] (pH 6); -0.467 in data set [1] (pH 6, modulator: ogerin); -0.475 in data set [1] (pH 6.5, modulator: ogerin). The surface expression score in data set [2] was -0.777.
For M11V, in that order: 0.14, 0.368, 0.272, 0.063 and 0.174.
For M11D, the cAMP reporter score in data set [1] (pH 5.5) worked out at 0.393; in data set [1] (pH 6) it was 0.018; in data set [1] (pH 6, modulator: ogerin) it was 0.421; in data set [1] (pH 6.5, modulator: ogerin), 0.324. In addition, the surface expression score in data set [2] turned out to be 0.843.
